The other results are listed elsewhere or left out. No stated cut-off is given here; in the data, only hits are listed; in these data all have Qbind below 0.67. Most values come without repeats; read them as rough.
Tests used:
Experiment in all cases: Qbind: 19F CPMG 200 ms/0 ms integral ratio with target relative to without target; higher = weaker binding (less relaxation enhancement by target)
[1] = tested on: Adenine-sensing riboswitch
[2] = tested on: HDV ribozyme (70 nt); details: 19F shift (ppm): -120.618
[3] = tested on: Hammerhead ribozyme (54 nt); details: 19F shift (ppm): -120.618
[4] = tested on: PtkA (30 kDA); details: 19F shift (ppm): -120.466
[5] = tested on: TPP-sensing riboswitch tenA
[6] = tested on: TPP-sensing riboswitch thiM (80)
[7] = tested on: Tel26 G-quadruplex (26 nt); details: 19F shift (ppm): -120.548
[8] = tested on: Terminator stem (39 nt); details: 19F shift (ppm): -120.531
[9] = tested on: Translation initiation region (60 nt); details: 19F shift (ppm): -120.618
[10] = tested on: ZMP-sensing riboswitch; details: 19F shift (ppm): -120.531
[11] = tested on: c-di-GMP-sensing riboswitch (98 nt); details: 19F shift (ppm): -120.531
[12] = tested on: cGAMP-sensing riboswitch; details: 19F shift (ppm): -120.531
[13] = tested on: cKit G-quadruplex (24 nt); details: 19F shift (ppm): -120.548
[14] = tested on: cMyc G-quadruplex (22 nt); details: 19F shift (ppm): -120.548
[15] = tested on: tRNA (77nt); details: 19F shift (ppm): -120.618
[16] = tested on: wtTel26 G-quadruplex (26 nt); details: 19F shift (ppm): -120.548

Measured: Qbind: 19F CPMG 200 ms/0 ms integral ratio

CNC(C)c1ccc(F)cc1.Cl (centres undefined)
active: [1]; 19F shift (ppm): -112.4396 = 0.615

N#Cc1ccc(N2CCNCC2)c(F)c1
active: [1]; 19F shift (ppm): -120.618 = -0.0494 | [2] 0.449 | [3] 0.261 | [4] 0.178 | [5]; 19F shift (ppm): -120.5772 = -0.283 | [6]; 19F shift (ppm): -120.5772 = 0.0822 | [7] 0.0195 | [8] 0.605 | [9] 0.133 | [10] -0.018 | [11] 0.052 | [12] 0.104 | [13] -0.1 | [14] 0.0959 | [15] 0.351 | [16] 0.233

Cn1cc(C(N)=O)c(C(F)F)n1
active: [5]; 19F shift (ppm): -114.5188 = 0.0289 | [6]; 19F shift (ppm): -114.5188 = -0.0226

From the supplement of paper PMC7436455
